From PubChem BioAssay AID624418 (National Center for Advancing Translational Sciences (NCATS), 2012)
Out of some 410,000 compounds screened, about 530 (0.13%) were called active. The inconclusive results got no clear call from the source; some entries with a clear call stand among them for comparison. Calls follow the shape of the dose curve; as a rule, active = well fitted inhibition curve with a large enough effect; inconclusive = small, poorly fitted or top-dose-only effect, or another doubt; inactive = no such curve, though single readings can be large or run the other way. Potencies of inconclusive entries are doubtful fits and often do not repeat.

Assay: qHTS of GLP-1 Receptor Inverse Agonists: Cytotox Screen
Details: HEK293 cAMP-luciferase reporter cells, luminescence, 24 h; series mostly up to 38.3 µM
Procedure, shortened: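 MLSMR compounds, 24 hr on cells at 37 deg C/5% CO2; luminescence after luciferase reagent (12 min RT). Inhibition counted as the undesired cytotoxic outcome.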
Potency is read from the fitted curve at half-maximal effect.

SMILES	Potency
CC1CC(=S)Nc2ccccc2N1Cc1ccccc1 (stereo unspecified)	inconclusive: 12.6 µM [inhibitor, single point]
COc1ccc(-c2cc(C(F)(F)F)nc(SCC(=O)NCc3cccs3)n2)cc1	inactive
COc1cccc2sc3cc(C#CC4(O)CCCCC4)ccc3c(=O)c12	inconclusive: 31.6 µM [inhibitor, single point]
CN(C)CCNc1ncnc2c1sc1nc(N3CCCC3)c3c(c12)CC(C)(C)OC3	inconclusive: 20 µM [inhibitor, single point]
Cc1cccc2nc(-c3cccc(NC(=O)c4ccc(Cl)cc4)c3)cn12	inconclusive: 28.2 µM [inhibitor, single point]
COc1ccc(S(=O)(=O)N2CCC3(CC2)CC(=O)c2ccccc2O3)cc1C	inactive
CC(NC(=O)CN(c1cccc(C(F)(F)F)c1)S(=O)(=O)c1ccc(Cl)c([N+](=O)[O-])c1)c1ccccc1 (stereo unspecified)	inactive
O=C(COC(=O)c1ccccn1)c1ccc(Br)cc1	inconclusive: 0.447 µM [inhibitor, full curve]
CN1CCc2ccccc2Cc2[nH]c3ccccc3c2CC1	inactive
CCC(=O)Nc1c(C#N)c2nc3ccccc3nc2n1C1CCCCC1	inactive
CCC1=Nc2cc(C(=O)NCCCOC)ccc2Sc2ccccc21	inconclusive: 0.316 µM [inhibitor, full curve, poor fit]
CC(=NCCc1c(C)[nH]c2ccc(C)cc12)C1=C(O)CC(c2ccccc2)CC1=O (stereo unspecified)	inconclusive: 1.12 µM [inhibitor, full curve, poor fit]
S=C(NCCc1ccccc1)Nc1c(Cl)cccc1Cl	inconclusive: 28.2 µM [inhibitor, single point]
COc1c(Cl)cc(C(=O)Nc2cccc(-c3nc4ccccc4[nH]3)c2)cc1Cl	inconclusive: 11.2 µM [inhibitor, single point]
COc1cccc(-c2cccc(-c3nc(C(=O)NCc4ccc5c(c4)OCO5)cc4c3[C@H](CCO)N(S(=O)C(C)(C)C)C4)c2)c1 (stereo partly specified)	inconclusive: 28.2 µM [inhibitor, single point]
COC(=O)Cc1ccc(NC(=O)c2ccc(Br)o2)cc1	inactive
COc1ccc(C=O)cc1COc1ccccc1F	inconclusive: 28.2 µM [inhibitor, single point]
Cc1cc(C)c(C)c(S(=O)(=O)N2CCC(C(=O)N3CCN(c4ccc(F)cc4)CC3)CC2)c1C	inactive
Cc1ccc(-c2cc(C(=O)NCc3ccccn3)c3ccccc3n2)cc1C	inconclusive: 7.08 µM [inhibitor, partial curve, poor fit]
COC(=O)C(Nc1ccccc1Cl)(c1cc(C)c(O)c(C)c1)C(F)(F)F (stereo unspecified)	inconclusive: 12.6 µM [inhibitor, partial curve, poor fit]
CS(=O)(=O)Nc1cccc(C(=O)OCCCOc2ccc(F)cc2)c1	inactive
Cc1ccc(NC(=O)CSc2nccn2C2CCCC2)cc1	inactive

SMILES	Potency
O=C(Nc1ccc(F)cc1)Nc1nnc(COc2ccccc2F)s1	inconclusive: 28.2 µM [inhibitor, single point]
C/C(=N\NC(=O)C1(C)CC1(Br)Br)c1cccc(NC(=O)c2ccc(C)o2)c1 (stereo unspecified)	inconclusive: 11.2 µM [inhibitor, single point]
COc1ccc(/C=C/C(=O)OC2CCCCC2CN(C)C)cc1 (stereo unspecified)	inconclusive: 31.6 µM [inhibitor, partial curve, poor fit]
CCOc1ccc2c(c1)OC(c1ccc(C)cc1)(C(F)(F)F)NC2=O (stereo unspecified)	inconclusive: 10 µM [inhibitor, partial curve, poor fit]
O=C(c1ccc2c3c(cccc13)CC2)C1CCCN(Cc2cccnc2)C1 (stereo unspecified)	inactive
C=C(c1ccc(O)cc1)c1ccc(O)cc1	inconclusive: 28.2 µM [inhibitor, single point]
O=C(N/N=C/c1ccc([N+](=O)[O-])o1)c1ccccc1-n1cccc1	inconclusive: 7.08 µM [inhibitor, partial curve, poor fit]
COc1ccc(OC)c(/C=N/NC(=S)NCCc2ccccc2)c1	inconclusive: 10 µM [inhibitor, single point]
O=C(NC(=S)Nc1ccc(N2CCOCC2)c(Cl)c1)c1cncc(Br)c1	inconclusive: 14.1 µM [inhibitor, single point]
C=CCn1c(SCC(=O)N2c3ccccc3Sc3ccccc32)nnc1-c1ccco1	inconclusive: 28.2 µM [inhibitor, single point]
CCC(C(=O)OCC(=O)Nc1cc(Cl)cc(Cl)c1)c1ccccc1 (stereo unspecified)	inconclusive: 14.1 µM [inhibitor, single point]
CCNc1nc(NC(C)C)nc(SCCOc2ccc(C)cc2)n1	inactive
O=C(ONC1=NCCCCC1)c1c(F)cccc1F	inconclusive: 10 µM [inhibitor, partial curve, poor fit]
N#Cc1cccc(NC(=O)c2cc(C3CCCCN3C(=O)c3ccccc3)on2)c1 (stereo unspecified)	inactive
COc1ccccc1NC(=O)C1=C(C)Nc2nc(SCc3ccccc3)nn2C1c1cccs1 (stereo unspecified)	inactive
CCOc1ccc(C(=O)Nc2cc(-c3nc4ccccc4[nH]3)ccc2Cl)cc1[N+](=O)[O-]	inconclusive: 11.2 µM [inhibitor, partial curve, poor fit]
CCCN1CCN(CCCNC(=O)c2ccc3c(Cl)c4c(nc3c2)CCCC4)CC1	inconclusive: 12.6 µM [inhibitor, single point]
COc1ccc(N(CC(=O)Nc2ccc(OC)c(Cl)c2)S(=O)(=O)c2c(C)noc2C)cc1	inactive
N#C/C(=N\Nc1ccccc1F)C(=N)N1CCCCC1	inconclusive: 28.2 µM [inhibitor, single point]
COc1ccc(CC2(CO)CCN(Cc3ccc(OC(F)(F)F)cc3)CC2)cc1	inconclusive: 12.6 µM [inhibitor, single point]
Oc1c(C(Nc2ccccn2)c2ccccn2)ccc2cccnc12 (stereo unspecified)	inconclusive: 0.501 µM [inhibitor, full curve, poor fit]
O=C1N/C(=N\N=C\c2ccccn2)SC1Cc1cccc(SC(F)F)c1 (stereo unspecified)	inconclusive: 2.82 µM [inhibitor, full curve]

SMILES	Potency
Cc1[nH]n(C(N)=S)c(=O)c1N=Nc1ccc([N+](=O)[O-])cc1Cl	inconclusive: 0.708 µM [inhibitor, full curve, poor fit]
Cc1ccc(Cn2c(Cc3ccccc3)nc3ccccc32)cc1	inconclusive: 28.2 µM [inhibitor, single point]
CN(C(=O)COC(=O)CCC1CCCCC1)c1c(N)n(Cc2ccccc2)c(=O)[nH]c1=O	inconclusive: 11.2 µM [inhibitor, single point]
CCOC(=O)N1CCC(NC(=O)c2ccc3c(c2)ncn3C2CCCC2)CC1	inactive
O=C(Nc1cccc(-c2nc3ccccc3[nH]2)c1)c1cccc(NC(=O)c2ccco2)c1	inconclusive: 8.91 µM [inhibitor, partial curve, poor fit]
COc1ccc2c(c1)N(C[C@H](C)CN(C)C)c1ccccc1S2	inconclusive: 6.31 µM [inhibitor, partial curve]
CCOC(=O)N1CCN(Cc2cc(Cl)c3cccnc3c2O)CC1	inconclusive: 0.501 µM [inhibitor, full curve, poor fit]
CCOc1ccc(C2c3[nH]c4ccccc4c3CCN2C(=O)CCC2CCCC2)cc1 (stereo unspecified)	inactive
COCCNC(=O)/C(C#N)=C/c1cc(Br)c(O)c(OC)c1	inconclusive: 2.51 µM [inhibitor, partial curve, poor fit]
COc1ccccc1CN(C)C(=O)c1cccc(S(=O)(=O)N2CCCc3ccccc32)c1	inconclusive: 11.2 µM [inhibitor, single point]
CC(=O)Nc1ccc(NC(=O)C(C)OC(=O)COc2ccc(Nc3ccccc3)cc2)cc1 (stereo unspecified)	inconclusive: 17.8 µM [inhibitor, single point]
COc1ccc(-c2cc(C(F)(F)F)nc(N)n2)cc1	inactive
CC(C)(C)OC(=O)NCc1ccc(CNC(=O)c2[nH]cnc2C(=O)N[C@@H](Cc2ccccc2)C(=O)OCc2ccccc2)cc1	inactive
OC(COc1ccc(F)cc1Cl)CN1CCC(Cc2ccccc2)CC1 (stereo unspecified)	inconclusive: 28.2 µM [inhibitor, single point]
Cc1ccccc1CN1C(=O)c2ccccc2Sc2ccc(C(=O)NCCCN3CCOCC3)cc21	inconclusive: 31.6 µM [inhibitor, partial curve, poor fit]
CC(C)(CN1CCN(Cc2ccccc2)CC1)NS(=O)(=O)c1ccccc1	inactive
COc1cc(/C=N/Nc2ccccc2C(F)(F)F)ccc1O	inactive
O=C(/C=C/c1ccc(O)c([N+](=O)[O-])c1)c1ccc2ccccc2c1	inconclusive: 12.6 µM [inhibitor, single point]
COc1c(OC(C)=O)ccc(/C=C/c2ccc3cccc(OCc4ccccc4)c3n2)c1[N+](=O)[O-]	inconclusive: 10 µM [inhibitor, partial curve, poor fit]
O=C(CSc1nnnn1-c1ccc(O)cc1)Nc1ccc(N2CCOCC2)c(Cl)c1	inconclusive: 14.1 µM [inhibitor, single point]
NC(=O)C[C@H]1NC(=O)[C@H](CCC(=O)O)NC(=O)c2cc([N+](=O)[O-])cc(I)c2NCCC[C@@H](C(N)=O)NC1=O	inconclusive: 0.501 µM [inhibitor, full curve, poor fit]
COc1ccc(C(=O)c2no[n+]([O-])c2C(=O)c2ccc(OC)cc2)cc1	inconclusive: 20 µM [inhibitor, single point]
